Source: the supplement of paper PMC8728848
This is one part of the list.

Legend:
Assay in all cases: glycan array binding signal (z-score within array); higher = stronger binding
Settings in all cases: glycan notation: IUPAC condensed, linker removed
[1] = biological target: Fuc(a1-2)[Gal(a1-3)]Gal(b1-4)Glc
Summary of the method: (§1)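 The Consortium for Functional Glycomics database supplied 3228 glycan arrays, of which those lacking an available protein sequence were dropped. The binding signal, a within-array Z-score, was averaged across arrays of the same protein sequence and across linkers. Negative scores can be read as non-binding.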

[2] = biological target: Fuc(a1-2)[Gal(a1-3)]Gal(b1-4)GlcNAc
Summary of the method: as §1

[3] = biological target: Fuc(a1-2)[Gal(a1-3)]Gal(b1-4)GlcNAc(b1-2)Man(a1-3)[Fuc(a1-2)[Gal(a1-3)]Gal(b1-4)GlcNAc(b1-2)Man(a1-6)]Man(b1-4)GlcNAc(b1-4)GlcNAc
Summary of the method: as §1

[4] = biological target: Fuc(a1-2)[Gal(a1-3)]Gal(b1-4)GlcNAc(b1-2)Man(a1-3)[Fuc(a1-2)[Gal(a1-3)]Gal(b1-4)GlcNAc(b1-2)Man(a1-6)]Man(b1-4)GlcNAc(b1-4)[Fuc(a1-6)]GlcNAc
Summary of the method: as §1

[5] = biological target: Fuc(a1-2)[Gal(a1-3)]Gal(b1-4)GlcNAc(b1-3)GalNAc
Summary of the method: as §1

[6] = biological target: Fuc(a1-2)[Gal(a1-3)]Gal(b1-4)[Fuc(a1-3)]Glc
Summary of the method: as §1

[7] = biological target: Fuc(a1-2)[Gal(a1-3)]Gal(b1-4)[Fuc(a1-3)]GlcNAc
Summary of the method: as §1

[8] = biological target: Fuc(a1-2)[Gal(a1-3)]Gal(b1-4)[Fuc(a1-3)]GlcNAc(b1-3)GalNAc
Summary of the method: as §1

[9] = biological target: Fuc(a1-2)[Gal(a1-4)]Gal(b1-4)GalNAc
Summary of the method: as §1

[10] = biological target: Fuc(a1-2)[Gal(a1-4)]Gal(b1-4)GlcNAc
Summary of the method: as §1

[11] = biological target: Fuc(a1-2)[GalNAc(a1-3)]Gal
Summary of the method: as §1

[12] = biological target: Fuc(a1-2)[GalNAc(a1-3)]Gal(b1-3)GalNAc(a1-3)[Fuc(a1-2)]Gal(b1-4)GlcNAc
Summary of the method: as §1

[13] = biological target: Fuc(a1-2)[GalNAc(a1-3)]Gal(b1-3)GlcNAc
Summary of the method: as §1

[14] = biological target: Fuc(a1-2)[GalNAc(a1-3)]Gal(b1-3)GlcNAc(b1-2)Man(a1-3)[Fuc(a1-2)[GalNAc(a1-3)]Gal(b1-3)GlcNAc(b1-2)Man(a1-6)]Man(b1-4)GlcNAc(b1-4)GlcNAc
Summary of the method: as §1

[15] = biological target: Fuc(a1-2)[GalNAc(a1-3)]Gal(b1-3)GlcNAc(b1-3)GalNAc
Summary of the method: as §1

[16] = biological target: Fuc(a1-2)[GalNAc(a1-3)]Gal(b1-4)Glc
Summary of the method: as §1

[17] = biological target: Fuc(a1-2)[GalNAc(a1-3)]Gal(b1-4)GlcNAc
Summary of the method: as §1

[18] = biological target: Fuc(a1-2)[GalNAc(a1-3)]Gal(b1-4)GlcNAc(b1-2)Man(a1-3)[Fuc(a1-2)[GalNAc(a1-3)]Gal(b1-4)GlcNAc(b1-2)Man(a1-6)]Man(b1-4)GlcNAc(b1-4)GlcNAc
Summary of the method: as §1

[19] = biological target: Fuc(a1-2)[GalNAc(a1-3)]Gal(b1-4)GlcNAc(b1-3)Gal(b1-4)GlcNAc
Summary of the method: as §1

[20] = biological target: Fuc(a1-2)[GalNAc(a1-3)]Gal(b1-4)GlcNAc(b1-3)Gal(b1-4)GlcNAc(b1-3)Gal(b1-4)GlcNAc
Summary of the method: as §1

[21] = biological target: Fuc(a1-2)[GalNAc(a1-3)]Gal(b1-4)GlcNAc(b1-3)GalNAc
Summary of the method: as §1

[22] = biological target: Fuc(a1-2)[GalNAc(a1-3)]Gal(b1-4)[Fuc(a1-3)]GlcNAc
Summary of the method: as §1

[23] = biological target: Fuc(a1-2)[GalNAc(a1-3)]Gal(b1-4)[Fuc(a1-3)]GlcNAc(b1-3)GalNAc
Summary of the method: as §1

[24] = biological target: Fuc(a1-2)[GalNAc(a1-4)]Gal(b1-4)GlcNAc
Summary of the method: as §1

[25] = biological target: Fuc(a1-2)[GalNAc(b1-3)]Gal
Summary of the method: as §1

[26] = biological target: Fuc(a1-3)GlcNAc
Summary of the method: as §1

[27] = biological target: Fuc(a1-3)[Gal(b1-4)]Glc6S
Summary of the method: as §1

[28] = biological target: Fuc(a1-3)[Gal(b1-4)]GlcNAc
Summary of the method: as §1

[29] = biological target: Fuc(a1-3)[Gal(b1-4)]GlcNAc(b1-2)Man(a1-3)[Fuc(a1-3)[Gal(b1-4)]GlcNAc(b1-2)Man(a1-6)]Man(b1-4)GlcNAc(b1-4)GlcNAc
Summary of the method: as §1

[30] = biological target: Fuc(a1-3)[Gal(b1-4)]GlcNAc(b1-2)Man(a1-3)[Fuc(a1-3)[Gal(b1-4)]GlcNAc(b1-2)Man(a1-6)]Man(b1-4)GlcNAc(b1-4)[Fuc(a1-6)]GlcNAc
Summary of the method: as §1

[31] = biological target: Fuc(a1-3)[Gal(b1-4)]GlcNAc(b1-3)Gal(b1-3)[Fuc(a1-4)]GlcNAc
Summary of the method: as §1

[32] = biological target: Fuc(a1-3)[Gal(b1-4)]GlcNAc(b1-3)GalNAc
Summary of the method: as §1

[33] = biological target: Fuc(a1-3)[Gal(b1-4)]GlcNAc(b1-4)Gal(b1-4)[Fuc(a1-3)]GlcNAc
Summary of the method: as §1

[34] = biological target: Fuc(a1-3)[Gal(b1-4)]GlcNAc(b1-4)Gal(b1-4)[Fuc(a1-3)]GlcNAc(b1-4)Gal(b1-4)[Fuc(a1-3)]GlcNAc
Summary of the method: as §1

[35] = biological target: Fuc(a1-3)[Gal(b1-4)]GlcNAc(b1-6)[Gal(b1-3)GlcNAc(b1-3)]Gal(b1-4)Glc
Summary of the method: as §1

[36] = biological target: Fuc(a1-3)[Gal(b1-4)]GlcNAc6S
Summary of the method: as §1

[37] = biological target: Fuc(a1-3)[Gal3S(b1-4)]Glc
Summary of the method: as §1

[38] = biological target: Fuc(a1-3)[Gal3S(b1-4)]Glc6S
Summary of the method: as §1

[39] = biological target: Fuc(a1-3)[Gal3S(b1-4)]GlcNAc
Summary of the method: as §1

[40] = biological target: Fuc(a1-3)[Gal3S(b1-4)]GlcNAc6S
Summary of the method: as §1

[41] = biological target: Fuc(a1-3)[GalNAc(b1-4)]Gal(b1-4)GlcNAc
Summary of the method: as §1

[42] = biological target: Fuc(a1-3)[GalNAc(b1-4)]GlcNAc
Summary of the method: as §1

[43] = biological target: Fuc(a1-4)GlcNAc
Summary of the method: as §1

[44] = biological target: Fuc(b1-3)GlcNAc
Summary of the method: as §1

[45] = biological target: Gal(a1-2)Gal
Summary of the method: as §1

B1: AAL (Aleuria aurantia), P18891 (protein)
chain: PTEFLYTSKIAAISWAATGGRQQRVYFQDLNGKIREAQRGGDNPWTGGSSQNVIGEAKLFSPLAAVTWKSAQGIQIRVYCVNKDNILSEFVYDGSKWITGQLGSVGVKVGSNSKLAALQWGGSESAPPNIRVYYQKSNGSGSSIHEYVWSGKWTAGASFGSTVPGTGIGATAIGPGRLRIYYQATDNKIREHCWDSNSWYVGGFSASASAGVSIAAISWGSTPNIRVYWQKGREELYEAAYGGSWNTPGQIKDASRPTPSLPDTFIAANSSGNIDISVFFQASGVSLQQWQWISGKGWSIGAVVPTGTPAGW
glycan array binding signal (z-score) [1]: 0.091 | glycan array binding signal (z-score) [2]: -0.009 | glycan array binding signal (z-score) [3]: -0.368 | glycan array binding signal (z-score) [4]: 0.377 | glycan array binding signal (z-score) [5]: -0.435 | glycan array binding signal (z-score) [6]: 0.528 | glycan array binding signal (z-score) [7]: 0.529 | glycan array binding signal (z-score) [8]: -0.084 | glycan array binding signal (z-score) [9]: 1.5 | glycan array binding signal (z-score) [10]: 2.42 | glycan array binding signal (z-score) [11]: 1.83 | glycan array binding signal (z-score) [12]: -0.435 | glycan array binding signal (z-score) [13]: -0.512 | glycan array binding signal (z-score) [14]: -0.432 | glycan array binding signal (z-score) [15]: -0.417 | glycan array binding signal (z-score) [16]: -0.14 | glycan array binding signal (z-score) [17]: -0.289 | glycan array binding signal (z-score) [18]: -0.399 | glycan array binding signal (z-score) [19]: -0.392 | glycan array binding signal (z-score) [20]: -0.436 | glycan array binding signal (z-score) [21]: -0.439 | glycan array binding signal (z-score) [22]: 0.216 | glycan array binding signal (z-score) [23]: -0.404 | glycan array binding signal (z-score) [24]: 2.06 | glycan array binding signal (z-score) [25]: 0.553 | glycan array binding signal (z-score) [26]: 2.85 | glycan array binding signal (z-score) [27]: 0.804 | glycan array binding signal (z-score) [28]: 1.53 | glycan array binding signal (z-score) [29]: 0.896 | glycan array binding signal (z-score) [30]: 0.087 | glycan array binding signal (z-score) [31]: 1.6 | glycan array binding signal (z-score) [32]: 0.52 | glycan array binding signal (z-score) [33]: 2 | glycan array binding signal (z-score) [34]: 2.06 | glycan array binding signal (z-score) [35]: 0.607 | glycan array binding signal (z-score) [36]: 1.23 | glycan array binding signal (z-score) [37]: 1.73 | glycan array binding signal (z-score) [38]: 1.07 | glycan array binding signal (z-score) [39]: 1.76 | glycan array binding signal (z-score) [40]: 2.28 | glycan array binding signal (z-score) [41]: 1.61 | glycan array binding signal (z-score) [42]: 1.18 | glycan array binding signal (z-score) [43]: 1.99 | glycan array binding signal (z-score) [44]: 2.33 | glycan array binding signal (z-score) [45]: -0.511
